The whole screen tested about 350,000 compounds, of which about 9,900 (2.8%) were called active. The shares of active, inactive and inconclusive entries below differ from those in the screen. Calls follow the shape of the dose curve; as a rule, active = well fitted activation curve with a large enough effect; inconclusive = small, poorly fitted or top-dose-only effect; inactive = no such curve, though single readings can be large or run the other way. No potency is given beside an inconclusive call; the fits are too rough.
Assay: A quantitative high throughput screen for small molecules that induce DNA re-replication in MCF 10a normal breast cells. Also: nearly all actives have a fitted effect of over 50% in size. As to activity, positive = re-replication: % of control where 0% means no effect.
Conditions: MCF 10A DNA re-replication, Hoechst nuclear intensity, 48 h; activity, positive = re-replication: at 46.1 µM (top of the series)
With O=c1[nH][nH]c(=O)n1-c1ccccc1 the “activity, positive = re-replication” value was inactive: 6.99%. In the case of O=C(Nc1nc2ccccc2[nH]1)c1ccc(Cl)c(S(=O)(=O)N2CCCC2)c1, the Potency is reported as inconclusive [activator, single point]. With CN(C)CCCOc1nn(Cc2ccccc2)c2ccccc12 the Potency was “inactive”. With CCc1n[nH]c(=S)n1/N=C/c1cc(Br)c(O)c(OC)c1 the “activity, positive = re-replication” value was inactive: -2.16%. For COc1ccccc1Oc1ccc(NC(=O)c2ccc(Cl)cc2)cc1, the Potency was inconclusive [activator, partial curve, poor fit]. In the case of CCc1ccc(C(=O)N/N=C(\C)c2cccnc2)s1, the Potency is reported as inconclusive [activator, single point]. With Cc1cc(C)cc(OCC(O)CN2CCN(Cc3ccc4c(c3)OCO4)CC2)c1 (configuration not stated) the Potency was active: 16.4 µM. With Cc1c(C(=O)N2CCN(c3ccccn3)CC2)sc2ncnc(N3CCN(c4ccccc4)CC3)c12 the “activity, positive = re-replication” value was inactive: 13.3%. In the case of CC(NC(=O)CSc1nc2ccc(N)cc2s1)c1ccccc1 (configuration not stated), the Potency is reported as inconclusive [activator, partial curve, poor fit]. With COc1ccc2c(c1)CC/C(=C/c1ccncc1)C2=O the Potency was inconclusive [activator, single point]. In the case of CCOc1ccc(N(C)S(=O)(=O)c2ccc(C)c(C(=O)NCc3ccccc3OC)c2)cc1, the Potency is reported as inconclusive [activator, single point]. With N#C/C(=C\c1cccc(Oc2ccc(C(F)(F)F)cc2[N+](=O)[O-])c1)c1nc2ccccc2[nH]1 the Potency was active: 18.4 µM. In the case of C=CCNC(=O)c1c(N)n(-c2cccc(S(N)(=O)=O)c2)c2nc3ccccc3nc12, the Potency is reported as active: 3.26 µM. For Cc1ccccc1NC(=S)N/N=C/c1ccc(O)cc1O, the “activity, positive = re-replication” value was inactive: 17.7%. For Cc1ccc2nc(NC(=O)CSCc3ccccc3)sc2c1, the Potency was inconclusive [activator, single point]. With CCc1ccc(C2=NN(C(C)=O)C(c3ccco3)C2)cc1 (configuration not stated) the Potency was inconclusive [activator, partial curve, poor fit]. In the case of O=S(=O)(c1ccc(Br)c2ccccc12)N1CCCC1, the “activity, positive = re-replication” value is reported as inactive: -2.65%. In the case of CCSc1cc(C)nc2c(-c3ccccc3)c(C)nn12, the “activity, positive = re-replication” value is reported as inactive: 20.1%. For COc1ccc(-c2cc3ccc(F)cc3cn2)cc1, the Potency was inconclusive [activator, single point]. In the case of O=C(NNC(=O)c1cccnc1SCc1cccc([N+](=O)[O-])c1)c1ccc(F)cc1, the “activity, positive = re-replication” value is reported as inactive: 10%. In the case of Cn1c(=O)c2c(nc(N3CCCCCC3)n2CC(=O)c2ccccc2)n(C)c1=O, the Potency is reported as inconclusive [activator, partial curve, poor fit]. For COC(=O)CCCCCCCCCCN1CCCCC1, the Potency was inconclusive [activator, single point]. For Cc1ccc(C(=O)NNC(=O)C2CCCN(c3ncccn3)C2)cc1 (configuration not stated), the Potency was inconclusive [activator, single point]. In the case of COc1cc2c(=O)n(CCC(=O)NCC3CCCO3)c(=O)n(CC(=O)Nc3ccc(C)cc3C)c2cc1OC (configuration not stated), the Potency is reported as inconclusive [activator, single point]. With Cc1ccc(-c2csc(Nc3ccc(C(=O)O)cc3)[n+]2Cc2ccccc2)cc1 the Potency was inconclusive [activator, partial curve]. With CCCCCCCCCCCCCCCC(=O)NCCc1c[nH]c2ccccc12 the Potency was inconclusive [activator, single point]. For Cc1cc(-n2c(=S)sc3c(=O)n(-c4ccc(F)cc4)c(SCC(=O)O)nc32)ccc1Cl, the Potency was inconclusive [activator, partial curve, poor fit]. With CC(C)(C)NCC(=O)c1c[nH]c2ccccc12 the Potency was inconclusive [activator, single point]. In the case of Cc1[nH]n(-c2ccccc2)c(=O)c1C(=O)c1ccccc1, the Potency is reported as inconclusive [activator, single point]. With Cc1ccc(NC(=O)c2sc3nc(N4CCOCC4)c4c(c3c2N)CC(C)(C)OC4)cc1 the Potency was inconclusive [activator, single point]. In the case of CCCCOC(=O)/C=C\C(=O)NC(N)=O, the Potency is reported as inconclusive [activator, partial curve, poor fit]. In the case of C=CCC1(CC=C)CCCN1C(=O)c1cc(COc2ccccc2SC)on1, the Potency is reported as inconclusive [activator, partial curve, poor fit]. With CCCn1nc(NC(=O)c2cccs2)c2cc3ccc(C)cc3nc21 the Potency was inconclusive [activator, single point]. For Cc1ccc(S(=O)(=O)c2c(C)nn(C(C)(C)C)c2OC(=O)c2ccco2)cc1, the Potency was active: 13 µM. For Cc1nc(C)c(/C(O)=C/c2nc3ccccc3oc2=O)s1, the Potency was inconclusive [activator, partial curve]. With COc1ccc(S(=O)(=O)Nc2cccc(-c3ccc4nncn4n3)c2)cc1 the Potency was active: 5.8 µM. For Cc1ccc(C2C=C(c3ccccc3OC(F)F)Nc3ncnn32)cc1 (configuration not stated), the “activity, positive = re-replication” value was inactive: 13.5%. In the case of CC(C)N(Cc1cnn(C)c1)Cc1nc(Cc2ccccc2Cl)no1, the “activity, positive = re-replication” value is reported as inactive: 3.44%. With CN1CCN(c2ccc(CNS(=O)(=O)c3ccc(Cl)cc3)cc2)CC1 the Potency was inconclusive [activator, partial curve, poor fit]. With CCCC(C(=O)NCc1ccc(OC)cc1)N(Cc1ccco1)C(=O)c1snc(C(N)=O)c1N (configuration not stated) the Potency was inconclusive [activator, single point]. For Clc1ccc(CN2C3=NCCCN3c3ccccc32)cc1Cl, the Potency was active: 16.4 µM. For CCn1ccnc1CN(C)Cc1cn(-c2ccc(C)cc2)nc1-c1cccc(C)c1, the Potency was inconclusive [activator, single point]. In the case of O=C(Cc1c(Sc2ccccc2)c2ccccc2n1Cc1ccccc1)NCCO, the Potency is reported as active: 20.6 µM. With N#Cc1ccsc1NC(=O)CSc1ncnc2ccccc12 the Potency was inconclusive [activator, single point]. For COc1ccc(CCCC(=O)NCCc2ccccc2)c(C)c1, the “activity, positive = re-replication” value was inactive: 2.51%. In the case of O=C(c1ccc2c(c1)OCCO2)C1CCN(C(=O)c2ccc(F)c(F)c2)CC1, the “activity, positive = re-replication” value is reported as inactive: 1.69%. With COc1cc(CNCc2ccccn2)ccc1OCC(=O)NC1CCCCC1 the “activity, positive = re-replication” value was inactive: -0.354%. In the case of C/C(=N\Nc1c(F)c(F)c(Br)c(F)c1F)c1ccncc1, the Potency is reported as inconclusive [activator, single point]. For Cc1cccc(NC(=O)C2(C)CC3c4ccccc4C2c2ccccc23)c1 (configuration not stated), the Potency was inconclusive [activator, single point]. For COc1ccc(CN(C)CC2CCCN(CCc3ccc(F)cc3)C2)cc1OC (configuration not stated), the “activity, positive = re-replication” value was inactive: 10.3%. For COC(=O)CSC1=C(C#N)C(c2ccccc2)CC(=O)N1 (configuration not stated), the Potency was inconclusive [activator, single point]. In the case of Cc1ccc(Cn2c(=S)[nH]c3ccccc3c2=O)cc1, the Potency is reported as inconclusive [activator, single point]. In the case of Cc1ccc(S(=O)(=O)Nc2ccccc2C=Nc2cccc(C)c2C)cc1, the Potency is reported as inconclusive [activator, single point]. For CC1CCCCN1C(=O)CN1C(=O)c2ccccc2S1(=O)=O (configuration not stated), the “activity, positive = re-replication” value was inactive: 6.05%. For O=C(COc1cccc(Cl)c1)N/N=C\c1cc2ccccc2nc1Cl, the Potency was inconclusive [activator, single point]. In the case of O=S1(=O)c2c(F)cccc2OC(COc2ccccc2)CN1CCc1ccc(F)cc1 (configuration not stated), the Potency is reported as inconclusive [activator, single point]. For CCN=c1sc(C(=O)NCCc2ccccc2)cc(=O)n1CC, the Potency was inconclusive [activator, single point]. In the case of COc1ccccc1N/C(N)=N/c1nc(C)cc(C)n1, the Potency is reported as inconclusive [activator, single point]. With CC(=O)Nc1nc(-c2ccccc2)nc(C)c1C(C)=O the “activity, positive = re-replication” value was inactive: 19%. With CN(CC(=O)N1CCOCC1)C(=O)CSc1nc2ccccc2s1 the “activity, positive = re-replication” value was inactive: -8.85%. In the case of Cc1ccc(-n2c(CCc3ccccc3)nnc2SCC(=O)NCc2ccccc2)cc1C, the Potency is reported as inconclusive [activator, partial curve, poor fit]. With COc1ccc(-c2[nH]c(-c3ccc(F)cc3)nc2SCC(=O)NC2CCCC2)cc1 the Potency was inconclusive [activator, full curve, poor fit]. In the case of CCn1cc(C(=O)O)c(=O)c2cc(F)c(N3CCN(C(=O)Nc4ccccc4)CC3)cc21, the “activity, positive = re-replication” value is reported as inactive: 13.1%. In the case of Cc1ccc(S(=O)(=O)Nc2c(O)ccc3ccccc23)cc1, the Potency is reported as inconclusive [activator, single point]. For CC(=O)c1ccc2c(c1)C1C=CCC1C(c1cc3c(cc1Br)OCO3)N2 (configuration not stated), the Potency was active: 4.11 µM. With CCc1cc2c(=O)n(Cc3ccco3)c(SCC(=O)N(C)C3CCS(=O)(=O)C3)nc2s1 (configuration not stated) the “activity, positive = re-replication” value was inactive: 13.8%. In the case of OC(CN(Cc1ccccc1)Cc1ccccc1)c1ccccc1 (configuration not stated), the Potency is reported as inconclusive [activator, single point]. With CN(C)c1ccc(/C=C(\C#N)C(=O)Nc2nc3c(s2)CCN(Cc2ccccc2)C3)cc1 the Potency was inconclusive [activator, partial curve, poor fit]. For O=C(Nc1ccc(N2CCN(C(=O)c3cccs3)CC2)cc1)c1ccccc1F, the Potency was inconclusive [activator, single point]. In the case of Cc1cc(C)c(C)c(OC(=O)c2sc(Cl)nc2C)c1, the Potency is reported as inconclusive [activator, single point]. With Cc1ccc(NC(=O)c2cc([N+](=O)[O-])ccc2NCc2cccnc2)cc1Cl the “activity, positive = re-replication” value was inactive: 5.98%. For O=C(CN1c2ccccc2Sc2ccccc21)NNC(=O)Nc1cccc(Cl)c1, the Potency was active: 23.1 µM.
Potency is read from the fitted curve at half-maximal effect; tags tell the direction and shape of the fitted curve.
